Test results reported in the supplement of paper PMC6089552.
The whole screen tested about 3,200 compounds, of which about 300 (9.4%) showed activity. This is a selection; strong and weak results do not stand in their true shares.

Test system: A673/TR/shEF
Experiment: cell viability (LOESS-normalised, relative to median of negative controls) (log2 ratio); higher = more viable cells (less compound effect), active = hit call of the paper (over 3 MAD below the median)
Conditions: treatment time: 72 h
Procedure, shortened: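 For three days, A673/TR/shEF Ewing sarcoma cells in 384-well plates (1,500 per well) were treated with library compounds at two or more concentrations or with DMSO controls, after doxycycline had been added or withheld 24 h beforehand to induce EWS-FLI1 shRNA knockdown. Viability was read by CellTiter-Glo luminescence on an Envision reader. The data were LOESS-corrected per plate, divided by the median of negative controls and log2-transformed.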

[1] = 0.25 µM, library screen: screen1, EWS-FLI1 expression: high (no doxycycline)
[2] = 0.25 µM, library screen: screen1, EWS-FLI1 expression: low (doxycycline-induced shRNA knockdown)
[3] = 2.5 µM, library screen: screen1, EWS-FLI1 expression: high (no doxycycline)
[4] = 2.5 µM, library screen: screen1, EWS-FLI1 expression: low (doxycycline-induced shRNA knockdown)
[5] = 0.103 µM, library screen: screen3, EWS-FLI1 expression: high (no doxycycline)
[6] = 0.103 µM, library screen: screen3, EWS-FLI1 expression: low (doxycycline-induced shRNA knockdown)
[7] = 0.308 µM, library screen: screen3, EWS-FLI1 expression: high (no doxycycline)
[8] = 0.308 µM, library screen: screen3, EWS-FLI1 expression: low (doxycycline-induced shRNA knockdown)
[9] = 0.926 µM, library screen: screen3, EWS-FLI1 expression: high (no doxycycline)
[10] = 0.926 µM, library screen: screen3, EWS-FLI1 expression: low (doxycycline-induced shRNA knockdown)
[11] = 2.8 µM, library screen: screen3, EWS-FLI1 expression: high (no doxycycline)
[12] = 2.8 µM, library screen: screen3, EWS-FLI1 expression: low (doxycycline-induced shRNA knockdown)
[13] = 8.3 µM, library screen: screen3, EWS-FLI1 expression: high (no doxycycline)
[14] = 8.3 µM, library screen: screen3, EWS-FLI1 expression: low (doxycycline-induced shRNA knockdown)
[15] = 25 µM, library screen: screen3, EWS-FLI1 expression: high (no doxycycline)
[16] = 25 µM, library screen: screen3, EWS-FLI1 expression: low (doxycycline-induced shRNA knockdown)
[17] = 0.25 µM, library screen: screen2, EWS-FLI1 expression: high (no doxycycline)
[18] = 0.25 µM, library screen: screen2, EWS-FLI1 expression: low (doxycycline-induced shRNA knockdown)
[19] = 2.5 µM, library screen: screen2, EWS-FLI1 expression: high (no doxycycline)
[20] = 2.5 µM, library screen: screen2, EWS-FLI1 expression: low (doxycycline-induced shRNA knockdown)
[21] = 0.025 µM, library screen: screen1, EWS-FLI1 expression: high (no doxycycline)
[22] = 0.025 µM, library screen: screen1, EWS-FLI1 expression: low (doxycycline-induced shRNA knockdown)
[23] = 25 µM, library screen: screen1, EWS-FLI1 expression: high (no doxycycline)
[24] = 25 µM, library screen: screen1, EWS-FLI1 expression: low (doxycycline-induced shRNA knockdown)

Measured: cell viability (log2)

CCN(CC)CCNC(=O)COc1ccc(OC)cc1
inactive: [1] 0.00705 | [2] 0.0569 | [3] 0.0214 | [4] 0.0733

Cc1nc2n(c(=O)c1CCN1CCC(c3noc4cc(F)ccc34)CC1)CCCC2O (stereo not drawn)
inactive: [5] 0.129 | [6] 0.0142 | [7] 0.116 | [8] 0.0891 | [9] 0.0923 | [10] 0.124 | [11] 0.111 | [12] 0.0944 | [13] 0.108 | [14] 0.0895 | [15] 0.0176 | [16] 0.17

CC1(C)Oc2ccc3ccc(=O)oc3c2C[C@H]1O
inactive: [1] 0.0366 | [2] -0.00203 | [3] 0.0909 | [4] 0.0204

CC(=O)OCC1=C(C(=O)O)N2C(=O)[C@@H](NC(=O)Cc3cccs3)[C@H]2SC1
inactive: [1] 0.0834 | [2] 0.0392 | [17] 0.184 | [18] 0.0927 | [3] 0.127 | [4] 0.146 | [19] -0.0276 | [20] 0.0781

CCOC(=O)C1(O)Oc2cc(OC)cc(OC)c2C(=O)C1c1ccccc1 (stereo not drawn)
inactive: [1] 0.122 | [2] 0.103 | [3] 0.112 | [4] 0.086

COc1c(O)cc2oc3cc(O)c(CC=C(C)C)c(O)c3c(=O)c2c1CC=C(C)C
inactive: [1] 0.0607 | [2] 0.115 | [3] 0.157 | [4] 0.0751

CC1(C)S[C@@H]2[C@H](NC(=O)Cc3ccccc3)C(=O)N2[C@H]1C(=O)O
inactive: [1] 0.0303 | [2] 0.0624 | [3] 0.183 | [4] 0.145

COC(=O)C[C@H]1C(C)(C)[C@@H](OC(C)=O)[C@@H]2CC3C4CC(=O)O[C@@H](c5ccoc5)[C@]4(C)CCC3[C@@]1(C)C2=O (stereo partly drawn)
inactive: [1] 0.0705 | [2] 0.0161 | [3] 0.14 | [4] 0.112

Cc1cccc(Nc2ccccc2C(=O)O)c1C
inactive: [1] 0.0456 | [2] 0.052 | [3] 0.174 | [4] 0.138

CC(N)C(=O)OC(C)(C)Cc1ccc(Cl)cc1 (stereo not drawn)
inactive: [1] -0.0479 | [2] 0.0707 | [3] 0.168 | [4] 0.0562

CN(CCOc1ccc(C[C@H](Nc2ccccc2C(=O)c2ccccc2)C(=O)O)cc1)c1ccccn1
inactive: [17] 0.159 | [18] 0.0373 | [19] 0.15 | [20] 0.0503

CC[n+]1c(-c2ccccc2)c2cc(N)ccc2c2ccc(N)cc21
inactive: [1] 0.0617 | [2] 0.0391 | [4] -0.0126
active: [3] -1.89

CNCCCN1c2ccccc2CCc2ccccc21
inactive: [1] 0.0473 | [2] 0.0874 | [17] 0.114 | [18] 0.131 | [3] 0.0691 | [4] 0.257 | [19] 0.0822 | [20] 0.0438

COc1c(O)cc(C2Oc3c(c(O)cc(O)c3[C@H]3c4c(O)cc(O)cc4O[C@H](c4ccc(O)cc4)[C@@H]3O)C[C@H]2O)cc1O (stereo partly drawn)
inactive: [5] -0.000188 | [6] 0.0292 | [7] -0.0295 | [8] -0.00938 | [9] 0.0249 | [10] 0.0493 | [11] -0.0107 | [12] 0.0655 | [13] 0.0329 | [14] 0.11 | [15] 0.0402 | [16] 0.209

Cn1c(=O)c2c(ncn2CCO)n(C)c1=O
inactive: [1] 0.164 | [2] 0.117 | [3] 0.193 | [4] 0.0746

CC(C)NCC(O)c1cc(O)cc(O)c1 (stereo not drawn)
inactive: [1] 0.00153 | [2] -0.0256 | [17] 0.11 | [18] 0.085 | [3] 0.146 | [4] 0.121 | [19] 0.186 | [20] 0.0726

CC(=O)/C(C)=N/O
inactive: [17] 0.106 | [18] 0.0636 | [19] 0.144 | [20] 0.0698

CCCn1cnc2c1c(=O)n(CCCCC(C)=O)c(=O)n2C
inactive: [17] 0.233 | [18] -0.0218 | [19] 0.137 | [20] 0.0484

CCCCCCCCCCCCCCSCC(=O)O
inactive: [17] 0.136 | [18] 0.0907 | [19] 0.015 | [20] 0.0283

Fc1ccc(C(c2ccccc2)(c2ccccc2F)n2ccnc2)cc1 (stereo not drawn)
inactive: [1] -0.0531 | [2] -0.0527 | [3] 0.135 | [4] -0.00386

CC(C)(CO)Cc1cc(C(C)(C)C)c(O)c(C(C)(C)C)c1
inactive: [17] 0.202 | [18] 0.0314 | [19] 0.09 | [20] 0.0594

O=C(O)CN(CCN(CC(=O)O)CC(=O)O)CCN(CC(=O)O)CC(=O)O
inactive: [17] 0.195 | [18] 0.0606 | [19] 0.135 | [20] 0.0953

C#CCN(C)CCCOc1ccc(Cl)cc1Cl
inactive: [17] 0.27 | [18] 0.097 | [19] 0.132 | [20] 0.147

O=c1c2ccccc2nc2n1CCc1c-2[nH]c2ccccc12
0.352: [19]
inactive: [17] 0.189 | [18] 0.103 | [20] 0.0856

O=C(/C=C/C=C/c1ccc2c(c1)OCO2)N1CCCCC1
inactive: [1] 0.0376 | [2] 0.0395 | [3] 0.121 | [4] 0.0315

C=C(C)/C=C1/C=CC(=O)C(C)=C1
inactive: [1] 0.0888 | [2] 0.0664 | [3] 0.0231 | [4] 0.158

CCC(=O)OCC(=O)[C@@]1(OC(=O)CC)[C@@H](C)C[C@H]2[C@@H]3CCC4=CC(=O)C=C[C@]4(C)[C@@]3(Cl)[C@@H](O)C[C@@]21C
inactive: [1] 0.0748 | [2] 0.02 | [3] 0.143 | [4] -0.0583

Oc1cc2c(c(Cl)c1O)CCNCC2c1ccccc1 (stereo not drawn)
inactive: [17] 0.218 | [18] 0.0817 | [19] 0.289 | [20] 0.0733

CCCCC/C=C\C[C@H](O)/C=C/c1cccc(C[C@H](O)CCCCO)n1
inactive: [17] 0.123 | [18] 0.0776 | [19] 0.178 | [20] 0.128

COCC(=O)O[C@]1(CCN(C)CCCc2nc3ccccc3[nH]2)CCc2cc(F)ccc2[C@@H]1C(C)C
inactive: [17] 0.169 | [18] 0.137 | [19] 0.0621 | [20] 0.0892

O=C(O)CCCCC1CCSS1 (stereo not drawn)
inactive: [1] 0.0761 | [2] 0.014 | [3] 0.102 | [4] 0.161

O=C(CSc1nnc(Cc2ccccc2)o1)c1ccc(Cl)cc1
inactive: [1] 0.0547 | [2] 0.0748 | [3] 0.133 | [4] -0.101

COc1cc(CN2CCN(Cc3cc(OC)c(OC)cc3OC)CC2)cc(OC)c1
inactive: [1] 0.195 | [2] 0.0735 | [3] 0.0606 | [4] -0.0102

COc1ccccc1N1CCN(CCCNc2cc(=O)n(C)c(=O)n2C)CC1
inactive: [1] 0.085 | [2] 0.152 | [17] 0.261 | [18] 0.134 | [3] 0.116 | [4] 0.121 | [19] 0.166 | [20] 0.1

COc1nc(N)nc2c1ncn2[C@@H]1O[C@H](CO)[C@@H](O)[C@@H]1O
inactive: [5] -0.0331 | [6] 0.0967 | [7] 0.111 | [8] 0.1 | [9] 0.0614 | [10] 0.133 | [11] 0.0686 | [12] 0.0525 | [13] 0.0218 | [14] 0.0206 | [15] 0.0232 | [16] 0.121

O=C(CCCN1CCC(O)(c2cccc(C(F)(F)F)c2)CC1)c1ccc(F)cc1
inactive: [17] 0.129 | [18] 0.074 | [19] 0.0781 | [20] 0.025

CN(C)CCCn1cc(C2=C(c3c[nH]c4ccccc34)C(=O)NC2=O)c2ccccc21
active: [3] -0.136 | [23] -0.422
inactive: [21] 0.176 | [22] 0.147 | [1] 0.197 | [2] 0.193 | [24] 0.0609
0.291: [4]

OC[C@H]1O[C@@](CO)(O[C@H]2O[C@H](CO)[C@@H](O)[C@H](O)[C@H]2O)[C@@H](O[C@H]2O[C@H](CO)[C@@H](O)[C@H](O)[C@H]2O)[C@@H]1O
inactive: [1] 0.0123 | [2] 0.0415 | [3] 0.0346 | [4] 0.126

CC(=O)Oc1cc2c(s1)CCN(C(C(=O)C1CC1)c1ccccc1F)C2 (stereo not drawn)
inactive: [5] 0.0815 | [6] 0.132 | [7] 0.116 | [8] 0.071 | [9] 0.0574 | [10] 0.0515 | [11] 0.108 | [12] 0.106 | [13] 0.0209 | [14] 0.0103 | [15] 0.0515 | [16] 0.0692

COc1c2c(nc3ccccc13)OC(C(C)(O)CO)C2 (stereo not drawn)
inactive: [17] 0.196 | [18] 0.114 | [19] 0.0978 | [20] 0.104

CC(C)C(=O)Nc1ccc([N+](=O)[O-])c(C(F)(F)F)c1
inactive: [1] 0.179 | [2] 0.0106 | [17] 0.112 | [18] 0.0436 | [3] 0.139 | [4] -0.0121 | [19] 0.0619 | [20] 0.0716

COc1c(C=O)c(O)cc2c1C(=O)c1ccccc1C2=O
inactive: [21] 0.0865 | [22] 0.0031 | [1] 0.118 | [2] -0.13 | [3] 0.0699 | [4] -0.209 | [23] 0.0121 | [24] -0.781
